# About 50,000 (12%) of roughly 420,000 compounds were called active. The shares of active, inactive and inconclusive entries below differ from those in the screen. Calls come from the whole dose curve; as a rule, active = well fitted inhibition curve with a large enough effect; inconclusive = small, poorly fitted or top-dose-only effect; inactive = flat fitted curve, though single readings scatter. Potencies of inconclusive entries are left out as doubtful fits.
# Assay: qHTS for Inhibitors of human tyrosyl-DNA phosphodiesterase 1 (TDP1): qHTS in cells in presence of CPT; note: nearly all actives have a fitted effect of over 55% in size
# Conditions: chicken DT40 Tdp1-/-;hTDP1 cells + 20 nM CPT, ATP luminescence, 48 h; activity change, negative = growth inhibition: at 46.2 µM (top of the series) unless noted
# Method in brief: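 Chicken DT40 Tdp1-/- cells stably complemented with human TDP1 were seeded at 400 cells/well in medium containing 20 nM camptothecin, exposed to pin-transferred compounds, and grown at 37 °C for at least 48 hr. Viability was read as ATP luminescence.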
# % is set by controls: 0 for no effect and ±100 for the full control effect; potency is the fitted concentration of half-maximal effect; tags give direction and shape of the fitted curve.
Structure (SMILES),Potency,"activity change, negative = growth inhibition"
O=S(=O)(c1ccc(Br)cc1Cl)N1CCCN(c2ccc(C(F)(F)F)cn2)CC1,"inconclusive [inhibitor, single point]",–
CCOc1ccc(NC(=O)Nc2cccn(Cc3ccccc3)c2=O)cc1,"inconclusive [inhibitor, single point]",–
O=S(=O)(c1ccccc1)N1CCC2(CCN(c3ccc(-c4ccccc4)cc3)CC2)CC1,"inconclusive [inhibitor, single point]",–
CCOC(=O)C1=C(C)OC(N)=C(C#N)C1c1ccc(OC)c(C)c1OC (centres undefined),"inconclusive [inhibitor, partial curve]",–
Cc1cccc(N2CCN(Cc3ccc(Br)o3)CC2)c1C,"inconclusive [inhibitor, single point]",–
CCOc1ccc(NC(=O)CN(C)C(=O)c2c(C)nn(Cc3ccccc3Cl)c2C)cc1OCC,–,inactive: -19.5%
CC1=C(C(=O)Nc2cc(C(=O)NCCCOC(C)C)ccc2C)SCCO1,–,inactive: 21.6%
COc1ccc(/C=N/NC(=O)c2c(C)nc3ccc(Br)cn23)cc1OC,active: 8.2 µM,–
Cn1c(=O)c2c(nc(SCC(=O)Nc3ccccc3)n2Cc2ccccc2F)n(C)c1=O,"inconclusive [inhibitor, single point]",–
Cc1ccc(S(=O)(=O)N2CCCCC2C)cc1[N+](=O)[O-] (centres undefined),active: 11.6 µM,–
Cc1ccccc1NC(=O)COC(=O)Cc1ccsc1,–,inactive: -2.84%
COC(=O)C1CCN(C(=O)Cn2nnc(-c3cccc(F)c3)n2)CC1,–,inactive: -5.92%
N#Cc1nc(Cc2cccc3ccccc23)oc1NCCN1CCCCC1,"inconclusive [inhibitor, single point]",–
CCc1cccc(C)c1Nc1c(-c2ccccc2)nc2sccn12,"inconclusive [inhibitor, single point]",–
COc1cc(CNc2ccc(N3CCCC3)cc2)ccc1OCc1ccccc1F,active: 3.66 µM,–
Fc1ccc(CNc2ncnc3onc(-c4ccc(F)cc4)c23)cc1,active: 18.4 µM,–
O=[N+]([O-])c1cccc(-c2csc(N/N=C/c3cccc(O)c3)n2)c1,"inconclusive [inhibitor, single point]",–
O=S(=O)(Nc1nc(SCc2ccc(Cl)cc2)n[nH]1)c1ccc(F)cc1,"inconclusive [inhibitor, single point]",–
N#CC1=C(c2ccccc2)/C(=C/c2ccccc2)OC1=O,active: 23.1 µM,–
CCOc1ccc(CCNC(=O)COC(=O)c2cc(OC)c(OC)cc2[N+](=O)[O-])cc1OCC,"inconclusive [inhibitor, single point]",–
Cc1cc(C)cc(NC(=O)Nc2cccnc2)c1,"inconclusive [inhibitor, single point]",–
O=C(NC1CCCCC1)c1ccc(Cn2c(SCc3ccc(F)cc3)nc3cccnc32)cc1,–,inactive: -9.19%
CCOC(=O)N1CCN(Cc2nc3cc(NC(=O)c4ccccc4[N+](=O)[O-])ccc3n2C(C)C)CC1,active: 16.4 µM,–
CCOC(=O)C1(Cc2cccc(OC)c2)CCCN(C(=O)c2cc(C)on2)C1 (centres undefined),–,inconclusive: -31.4% [inhibitor]
CC1=[N+]([O-])C(C)(C)N(O)C1(C)C,–,inactive: -8.59%

Structure (SMILES),Potency,"activity change, negative = growth inhibition"
Cc1ccccc1OCCC(=O)N(Cc1ccccc1)c1c(N)n(Cc2ccccc2)c(=O)[nH]c1=O,"inconclusive [inhibitor, single point]",–
O=c1[nH]c(CSc2nnc(-c3ccccc3)n2C2CCCCC2)nc2ccccc12,"inconclusive [inhibitor, single point]",–
O=C(Nc1ccccc1Sc1ccccc1)c1cnn2c1NC(=C1CC1)C=C2C(F)F,active: 15.8 µM,–
Cc1cc(C)c(CN2CCN(Cc3ccc(C)o3)C(CCO)C2)c(-n2cccn2)c1 (centres undefined),"inconclusive [inhibitor, single point]",–
COCCCn1c(=N)c(C(=O)NCc2ccco2)cc2c(=O)n3ccccc3nc21,–,inactive: -0.894%
Cc1cc2ccccc2n1CCNC(=O)c1ccc(Br)o1,–,inactive: -28.5%
O=c1nc(-c2ccccc2)c2ccccc2[nH]1,–,inactive: -3.95%
COc1cccc(-c2nnn(CC(=O)Nc3cc(OC)c(NC(=O)c4ccco4)cc3OC)n2)c1,–,inconclusive: -30.6% [inhibitor]
Cc1cccc(C)c1NC(=O)NCCc1c[nH]c2ccccc12,"inconclusive [inhibitor, single point]",–
COc1ccc(C(=O)NNC(=O)CSc2nnc(-c3ccc(O)cc3)n2C)cc1,–,inactive: -4.19%
CCNc1ccc(P(=O)(c2ccccc2)c2ccccc2)cc1,–,inactive: 3.54%
Fc1ccc(NC(=S)Nc2cccc3ccccc23)cc1F,"inconclusive [inhibitor, single point]",–
O=C(Nc1cccc2ccccc12)c1csc([C@@H]2O[C@H](CO)[C@@H](O)[C@H]2O)n1,–,inconclusive: -36.5% [inhibitor]
COc1ccc(CCN(C)C(=O)c2ccc(COc3ccccc3)o2)cc1OC,"inconclusive [inhibitor, single point]",–
O=C(CNc1cc(S(=O)(=O)N2CCCC2)ccc1OCC(F)(F)F)Nc1ccc(SC(F)F)cc1,active: 1.84 µM,–
CCC(=O)Nc1c(C)ccc2nsnc12,–,inactive: 3.18%
COC(=O)c1c(C)oc2ccc(N(C(C)=O)S(=O)(=O)c3ccccc3)cc12,active: 14.6 µM,–
Cc1c(O)ccc(/C(Cc2ccc3ccccc3n2)=N\N)c1O,active: 7.31 µM,–
Cc1oc(-c2ccc(Cl)cc2)nc1CS(=O)CC(=O)N1CCN(c2cccc(C(F)(F)F)c2)CC1 (centres undefined),active: 14.6 µM,–
CS(=O)(=O)c1ccc(C(=O)Nc2cc(S(C)(=O)=O)ccc2Cl)cc1,–,inactive: 2.26%
CCCCN(CC)C(=O)CSc1nc2n[nH]c(C)c2c(=N)n1-c1cccc(OC)c1,active: 23.1 µM,–
C=CCn1c(=O)c2ccccc2n2c(SCc3nnc(-c4ccccc4Br)o3)nnc12,"inconclusive [inhibitor, full curve, poor fit]",–
Cc1cc(NC(=S)NC(=O)/C=C/c2ccc(S(=O)(=O)N3CCOCC3)cc2)ccc1Br,"inconclusive [inhibitor, single point]",–
CCNC(=O)COc1cc(C)c(Br)c(C)c1,–,inactive: -8.79%
NC(=O)C1(N2CCCCC2)CCN(S(=O)(=O)c2ccc(Cl)s2)CC1,"inconclusive [inhibitor, single point]",–

Structure (SMILES),Potency,"activity change, negative = growth inhibition"
COc1cc(/C=N/Nc2nc(Nc3ccccc3)nc(-n3nc(C)cc3C)n2)cc(OC)c1OC,active: 23.1 µM,–
Brc1ccc(-c2nc3ccccn3c2Nc2ccc3c(c2)OCCO3)o1,active: 25.9 µM,–
CCS(=O)(=O)NC(C)C(c1cccs1)N1CCN(C)CC1 (centres undefined),–,inactive: -11.9%
Cc1ccc(CN2C(=O)N/C(=C/c3cc(C)n(-c4ccccn4)c3C)C2=O)cc1,"inconclusive [inhibitor, single point]",–
CCOc1ccc2oc(C(=O)OCC(=O)NCC3CCCO3)c(C)c2c1 (centres undefined),–,inactive: -3.37%
C[C@H](CO)N1C[C@H](C)[C@@H](CN(C)S(=O)(=O)c2ccc(-c3ccccc3)cc2)OCc2cn(nn2)CCCC1=O,–,inactive: -26.2%
Cc1nnsc1C(=O)N1CCCC(N2CCN(c3cccc(C(F)(F)F)c3)CC2)C1 (centres undefined),"inconclusive [inhibitor, single point]",–
Cc1cccc(N(C)C(=O)CCS(=O)(=O)c2ccc3c(c2)oc(=O)n3C)c1,"inconclusive [inhibitor, single point]",–
Cc1sc2ncnc(SCC(=O)c3cccs3)c2c1C,"inconclusive [inhibitor, single point]",–
CCOC(=O)c1cnn2c(SC)ncnc12,–,inactive: -17.6%
O=C1[C@@H](c2ccccc2)CC[C@@H]2C=CC[C@H]3CCN1[C@@H]32,"inconclusive [inhibitor, single point]",–
O=C(Nc1ccc(F)cc1)Nc1nnc(-c2ccncc2)s1,"inconclusive [inhibitor, single point]",–
CC(C)CC(C(=O)NCC1CCCO1)N(C(=O)Cn1nnc(-c2ccc(F)cc2)n1)c1ccccc1F (centres undefined),–,inactive: -27.3%
CN(C)S(=O)(=O)c1ccc2c(c1)N(CC(=O)Nc1ccc(OC(F)(F)F)cc1)C(=O)CS2,active: 16.4 µM,–
Cc1ccnc(N2C(=O)c3ccccc3C2Nc2cccc(C)c2C)c1 (centres undefined),"inconclusive [inhibitor, single point]",–
O=C(NCCCc1ccccc1)c1ccccc1O,"inconclusive [inhibitor, single point]",–
C=Cc1ccc(Cn2c(C(=O)O)c(CNC3CCCC3)c3ccc(C)cc32)cc1,"inconclusive [inhibitor, single point]",–
COc1cccc(NC(=O)COC(=O)c2cccnc2)c1,–,inactive: -4.13%
N#CC1(Nc2ccc(-c3ccc(Cl)cc3)cc2)CCCC1,"inconclusive [inhibitor, single point]",–
COc1ccc(S(=O)(=O)n2ccc(-c3ccc4c(c3)CCC(C)(C)O4)n2)cc1,"inconclusive [inhibitor, single point]",–
Cc1ccccc1Cn1c(=N)n(CC(O)c2ccco2)c2ccccc21 (centres undefined),active: 18.4 µM,–
CC(C)(C)c1cc(C(=O)N/N=C/c2ccc(F)cc2)n(-c2ccccc2)n1,active: 18.4 µM,–
CCCCn1c(N)c(N(CC(C)C)C(=O)c2cccc(OCc3ccccc3)c2)c(=O)[nH]c1=O,"inconclusive [inhibitor, full curve]",–
COc1ccc(OCC(=O)NC2CC(=O)N(c3cccc(OC)c3)C2)cc1 (centres undefined),–,inactive: -1.28%
